# B1: hPTHrP ([…])-NH2 (peptide)
# peptide: not shown
# modifications: C-terminal amide (NH2)
# Target: T1, hPTH (1-34) (human, UniProt P01270)
# T1 peptide: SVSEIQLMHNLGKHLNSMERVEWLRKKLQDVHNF
# Experiment: cell-based or functional assay
binder,measurement,value
B1,"IC50 Ratio: 50% inhibition of cAMP output, MC3T3-E1 mouse osteoblasts",0.087 ratio of IC50 to that of [Tyr34]-hPTH(3-34)-NH2

# Reference: patent publication US5446130, “Parathyroid hormone antagonists” (Mitsubishi Kasei Corporation, dated 1995)
